{"source": "PubChem BioAssay AID1240", "about": "(Sanford-Burnham Center for Chemical Genomics, 2008)", "note": "Hit rate of the full screen: of about 50,000 compounds, about 800 (1.6%) showed an effect of 50% or more. This is one part of the list."}
{"molecular_target": "Bcl-2-like protein 10 (Homo sapiens) (UniProt Q9HD36)", "sequence (Q9HD36 whole entry, looked up)": "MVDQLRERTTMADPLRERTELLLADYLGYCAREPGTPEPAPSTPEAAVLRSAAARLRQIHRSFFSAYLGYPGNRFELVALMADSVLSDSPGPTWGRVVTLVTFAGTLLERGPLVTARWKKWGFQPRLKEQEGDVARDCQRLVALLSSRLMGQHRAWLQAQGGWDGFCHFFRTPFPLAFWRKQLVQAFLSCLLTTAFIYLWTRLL", "test": "TR3 peptide-Bcl-B binding displacers, biochemical primary FP assay, phenotype converters (AID 1240);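 further: 0% = Bcl-B with tracer peptide and DMSO and 100% = tracer peptide lacking Bcl-B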", "conditions": "GST-Bcl-B / FITC-TR3 peptide fluorescence polarization; stronger effect = higher value; compound at 3.75 mg/L", "units": {"displacement": "%"}}
{"smiles": "Cc1n[nH]c(C)c1CCC(=O)N/N=C\\c1ccc(Cl)c(Cl)c1", "displacement": -1.7}
{"smiles": "Cc1ccc(S(N)(=O)=O)cc1NC(=O)c1ccc([N+](=O)[O-])cc1Cl", "displacement": 11}
{"smiles": "COCCOC(=O)c1c(C)oc2ccc(NS(=O)(=O)c3cc(C)ccc3C)cc12", "displacement": 10.8}
{"smiles": "O=C(CN(CCc1ccccc1)S(=O)(=O)c1ccc(Cl)cc1)NC1CCCC1", "displacement": -20.6}
{"smiles": "O=C(NCC1CC2CC1C1CC21)c1ccc(F)cc1", "note": "(centres undefined)", "displacement": -1.8}
{"smiles": "Cc1cccc(NS(=O)(=O)c2cccc3cccnc23)c1", "displacement": -10.6}
{"smiles": "COc1ccc(NC(=O)/C(C#N)=C/c2ccccc2[N+](=O)[O-])cc1", "displacement": 9.6}
{"smiles": "CCOc1ccc(C(=O)Nc2ccc(C(=O)OC)cc2)cc1Cl", "displacement": -5.2}
{"smiles": "COc1ccc([N+](=O)[O-])cc1NCc1ccc(C(F)(F)F)cc1", "displacement": 1}
{"smiles": "c1cc(CSc2nc3ccccc3[nH]2)nc(CSc2nc3ccccc3[nH]2)c1", "displacement": -10.3}
{"smiles": "O=C1/C(=C/c2ccc(Br)c([N+](=O)[O-])c2)SC(=S)N1Cc1ccccc1", "displacement": 11.6}
{"smiles": "O=C(Nc1ccc2nn(-c3ccc(F)cc3)nc2c1)c1ccccc1I", "displacement": -28.4}
{"smiles": "Cn1c(=O)c(C(=O)Nc2ncccn2)c(O)c2ccccc21", "displacement": 6.7}
{"smiles": "O=C1/C(=C\\c2ccc3c(c2)OCO3)C(c2ccccc2)=NN1c1ccccc1", "displacement": 8.9}
{"smiles": "O=C(Nc1ccccc1)Nc1nnc(-c2ccc(Cl)cc2Cl)s1", "displacement": 5.3}
{"smiles": "CCOc1ccc(NC(=O)CC2S/C(=N\\N=C\\c3ccc(O)c(OC)c3)NC2=O)cc1", "note": "(centres undefined)", "displacement": 9.6}
{"smiles": "COC(=O)C1=C(C)NC(=O)NC1c1ccc(C(C)C)cc1", "note": "(centres undefined)", "displacement": 7.2}
{"smiles": "Cc1ccc(C)c(NC(=O)C2CC3CCC2C3)c1", "note": "(centres undefined)", "displacement": 4}
{"smiles": "O=C(COc1ccc2ccccc2c1)N1CCN(C(=O)c2cccnc2)CC1", "displacement": 0.8}
{"smiles": "Cc1c(CCNC(=O)NS(=O)(=O)c2ccccc2Cl)c2ccccc2n1Cc1ccccc1", "displacement": 12.4}
{"smiles": "Cc1ccc(OCCOc2ccc(Cl)cc2/C=c2\\sc3nc4ccccc4n3c2=O)cc1", "displacement": -26.8}
{"smiles": "COc1ccccc1CNC(=O)CN(c1ccc(C)cc1)S(=O)(=O)c1ccc(F)cc1", "displacement": 0.1}
{"smiles": "O=C(O)CN1C(=O)/C(=C\\c2ccc(Cl)c(Cl)c2)SC1=S", "displacement": 10.4}
{"smiles": "COc1ccc(N(CC(=O)Nc2ccc(OC)c(OC)c2)S(C)(=O)=O)cc1Cl", "displacement": -3.1}
{"smiles": "COC(=O)c1c(C)oc2ccc(OC(=O)c3cccc([N+](=O)[O-])c3)cc12", "displacement": 5.4}
{"smiles": "COc1ccc(OC)c(S(=O)(=O)n2nc(C)cc2C)c1", "displacement": -21}
{"smiles": "CCN(CC)C(=O)c1ccc(C(=O)c2ccccc2)cc1", "displacement": -8.4}
{"smiles": "FC(F)(F)c1ccc(C2Nc3cccc4cccc(c34)N2)cc1", "displacement": 16.4}
{"smiles": "O=C(COc1ccc(Cl)cc1)Nc1ccc2ccccc2c1", "displacement": 15.9}
{"smiles": "C/C(Cn1nnc([N+](=O)[O-])n1)=N/NC(=O)Cc1ccc(Cl)cc1", "displacement": 1.8}
{"smiles": "Cc1ccc(Br)cc1S(=O)(=O)N1CCN(c2ccccc2)CC1", "displacement": -4.7}
{"smiles": "C=CCn1c(NCc2ccc(N(CC)CC)cc2)nc2ccccc21", "displacement": 2.3}
{"smiles": "O=C(O)c1cccc2c1NC(c1ccccc1Br)C1CC=CC21", "note": "(centres undefined)", "displacement": 132}
{"smiles": "C/C(=N\\NC(=O)CSc1ncccn1)c1ccc(Cl)cc1", "displacement": -5}
{"smiles": "CN1CCN(C(=O)CCN2C(=O)S/C(=C/c3ccc(Cl)cc3)C2=O)CC1", "displacement": 4.7}
{"smiles": "CC1=C(C(=O)OC(C)C)C(c2ccccc2C(F)(F)F)CC(=O)N1", "note": "(centres undefined)", "displacement": -4.4}
{"smiles": "CCOC(=O)c1c(CN(C)C)n(C)c2cc(Br)c(O)cc12", "displacement": -7.4}
{"smiles": "CCOC(=O)C1=C(O)/C(=C/c2ccc(N(C)C)cc2)SC1=Nc1ccc([N+](=O)[O-])cc1", "displacement": 15.5}
{"smiles": "O=C(COc1ccccc1[N+](=O)[O-])Nc1ccc(-c2nc3ccccc3o2)cc1", "displacement": -1.3}
{"smiles": "N#C/C(=N/Nc1ccc(Cl)cc1)C(=N)N1CCCCCC1", "displacement": -1.7}
{"smiles": "Cc1ccc(N=C2NC(=O)/C(=C/c3ccc(O)cc3)S2)cc1C", "displacement": 9.2}
{"smiles": "O=C1/C(=C/c2ccc(I)o2)SC(=S)N1c1ccccc1", "displacement": 22.4}
{"smiles": "O=C(Nc1ccccc1C(=O)Nc1ccccn1)c1ccc([N+](=O)[O-])cc1", "displacement": 45.1}
{"smiles": "COc1ccc(CN2CCN(C(=O)c3cccc(F)c3)CC2)c(OC)c1OC", "displacement": -4.8}
{"smiles": "COc1cc2c(cc1OC)C1=CC(=O)C(=O)N1C(C)(C)C2", "displacement": 18.4}
{"smiles": "Cc1cc(C)nc(SCC(=O)N(c2ccccc2)c2ccccc2)n1", "displacement": -6.6}
{"smiles": "COc1cc(/C=N\\n2nnnc2N)ccc1OCc1ccc(C)cc1", "displacement": 11.5}
{"smiles": "COc1ccc(N2C(=O)CC(Sc3nc(C)c4ccccc4n3)C2=O)cc1", "note": "(centres undefined)", "displacement": 12.9}
{"smiles": "COc1c(Br)cc(Br)cc1/C=N\\NC(=O)COc1ccc(C)cc1", "displacement": 1.1}
{"smiles": "COc1ccc(OCCNC(=O)Nc2cc(F)c(F)cc2Cl)cc1", "displacement": 1}
{"smiles": "COC(=O)C1=C(C)N(CC(C)C)C(=O)/C1=C\\c1cccs1", "displacement": 21.7}
{"smiles": "CCOC(=O)c1ccc(-c2ccc(/C=C3\\C(=O)NC(=O)C(C#N)=C3C)o2)cc1", "displacement": -4.6}
{"smiles": "Cc1cc(OCCOCCN2CCC(C)CC2)ccc1Cl", "displacement": 2.1}
{"smiles": "Cc1ccc(OCCNC(=O)c2ccccc2F)cc1", "displacement": 0.6}
{"smiles": "Cc1cccc(N2C(=O)NC(=O)/C(=C/c3cc(Cl)c(O)c(Cl)c3)C2=O)c1", "displacement": 4}
{"smiles": "O=C(Nc1ccc(I)cc1)C1CC(=O)N(c2ccc(F)cc2)C1", "note": "(centres undefined)", "displacement": 7.1}
{"smiles": "Cc1ccc(C2CC(C(F)(F)F)n3ncc(C(N)=O)c3N2)cc1", "note": "(centres undefined)", "displacement": -4.4}
{"smiles": "COc1ccccc1C/C(N)=N/OC(=O)c1ccccc1OC", "displacement": 12.4}
{"smiles": "O=c1c2ccccc2nc(Cc2ccccc2)n1-c1cccc2ccccc12", "displacement": -1.4}
{"smiles": "Cc1cc(C=C2C(=O)N(C)C(=O)N(C)C2=O)c(C)n1-c1ccc([N+](=O)[O-])cc1", "displacement": -45.5}
{"smiles": "O=C(O)CCCc1sc(/C(=N\\O)C(=O)O)cc1[N+](=O)[O-]", "displacement": -17.1}
{"smiles": "Cc1ccn2cc(-c3cccc(NC(=O)c4cc5cc(Br)ccc5oc4=O)c3)nc2c1", "displacement": 14.3}
{"smiles": "CCOc1cc(OCC)cc(C(=O)Nc2ccc3oc(-c4ccccc4F)nc3c2)c1", "displacement": 10.2}
{"smiles": "CC1=C(C(=O)Nc2ccc(C)cc2)C(c2ccc(O)cc2)NC(=S)N1", "note": "(centres undefined)", "displacement": 5.1}
{"smiles": "NC(=O)c1[nH]cnc1C(=O)c1ccccc1", "displacement": 15}
{"smiles": "O=C(Nc1ccc(S(=O)(=O)N2CCCCCC2)cc1)c1ccco1", "displacement": 0.9}
{"smiles": "CC1=C(C(=O)Nc2ccccc2Cl)C(c2ccccc2F)NC(=O)N1", "note": "(centres undefined)", "displacement": -13.4}
{"smiles": "O=C(COc1ccc(Cl)cc1Cl)NCc1ccncc1", "displacement": -2.7}
{"smiles": "c1ccc(-c2nc(N3CCOCC3)nc3ccccc23)cc1", "displacement": -1.9}
